Laboratory results from article PMC8408166.
These are yes or no findings as the source states them, for the method shown. For part of these data: Binding seen in cells or lysates may run through a third protein. Some entries that bind do so weakly or less than the wild type. For part of these data: Tags and fused reporters may be left off the sequences shown.

The chains behind the UniProt entries cited, without tags or fusion partners. Where a name states a change or a piece, a line headed by the entry shows the natural chain unless it says otherwise. A line that says so, or that is headed by a name, gives the form on record, which may keep a tag or linker. Residues count along the entry.
UniProt O95863: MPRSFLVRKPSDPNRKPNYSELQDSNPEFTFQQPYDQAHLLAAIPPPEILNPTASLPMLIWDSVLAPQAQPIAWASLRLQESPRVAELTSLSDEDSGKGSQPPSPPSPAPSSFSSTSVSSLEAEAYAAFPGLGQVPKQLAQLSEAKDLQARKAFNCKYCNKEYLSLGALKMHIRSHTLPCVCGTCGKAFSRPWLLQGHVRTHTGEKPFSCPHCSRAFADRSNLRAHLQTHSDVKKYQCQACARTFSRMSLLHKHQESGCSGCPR
UniProt Q9BQA1: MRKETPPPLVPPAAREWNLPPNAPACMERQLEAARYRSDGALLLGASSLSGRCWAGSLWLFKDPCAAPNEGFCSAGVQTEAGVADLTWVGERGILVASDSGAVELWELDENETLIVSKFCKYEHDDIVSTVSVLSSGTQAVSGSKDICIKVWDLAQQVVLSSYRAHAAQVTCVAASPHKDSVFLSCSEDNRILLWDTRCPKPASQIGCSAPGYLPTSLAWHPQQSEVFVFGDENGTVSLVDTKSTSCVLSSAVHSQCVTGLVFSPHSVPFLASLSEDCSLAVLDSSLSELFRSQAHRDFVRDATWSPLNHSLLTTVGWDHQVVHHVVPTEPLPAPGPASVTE
UniProt O14744: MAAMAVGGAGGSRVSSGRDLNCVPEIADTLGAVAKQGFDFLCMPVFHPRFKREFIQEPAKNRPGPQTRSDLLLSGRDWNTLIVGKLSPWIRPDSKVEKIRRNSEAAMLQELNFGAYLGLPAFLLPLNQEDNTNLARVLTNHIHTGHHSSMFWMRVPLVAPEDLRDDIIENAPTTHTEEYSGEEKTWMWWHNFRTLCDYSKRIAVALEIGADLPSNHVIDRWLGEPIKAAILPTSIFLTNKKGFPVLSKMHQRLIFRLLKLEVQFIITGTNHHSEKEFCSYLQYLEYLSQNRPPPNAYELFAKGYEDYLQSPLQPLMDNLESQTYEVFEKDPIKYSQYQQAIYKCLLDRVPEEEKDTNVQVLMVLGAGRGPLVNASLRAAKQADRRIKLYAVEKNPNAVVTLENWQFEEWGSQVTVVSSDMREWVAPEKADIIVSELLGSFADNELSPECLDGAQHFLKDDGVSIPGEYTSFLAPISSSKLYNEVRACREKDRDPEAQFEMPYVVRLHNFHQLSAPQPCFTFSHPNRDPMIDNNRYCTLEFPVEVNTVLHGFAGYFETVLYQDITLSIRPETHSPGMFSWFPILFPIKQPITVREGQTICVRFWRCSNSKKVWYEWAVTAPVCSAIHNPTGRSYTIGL
UniProt O94776: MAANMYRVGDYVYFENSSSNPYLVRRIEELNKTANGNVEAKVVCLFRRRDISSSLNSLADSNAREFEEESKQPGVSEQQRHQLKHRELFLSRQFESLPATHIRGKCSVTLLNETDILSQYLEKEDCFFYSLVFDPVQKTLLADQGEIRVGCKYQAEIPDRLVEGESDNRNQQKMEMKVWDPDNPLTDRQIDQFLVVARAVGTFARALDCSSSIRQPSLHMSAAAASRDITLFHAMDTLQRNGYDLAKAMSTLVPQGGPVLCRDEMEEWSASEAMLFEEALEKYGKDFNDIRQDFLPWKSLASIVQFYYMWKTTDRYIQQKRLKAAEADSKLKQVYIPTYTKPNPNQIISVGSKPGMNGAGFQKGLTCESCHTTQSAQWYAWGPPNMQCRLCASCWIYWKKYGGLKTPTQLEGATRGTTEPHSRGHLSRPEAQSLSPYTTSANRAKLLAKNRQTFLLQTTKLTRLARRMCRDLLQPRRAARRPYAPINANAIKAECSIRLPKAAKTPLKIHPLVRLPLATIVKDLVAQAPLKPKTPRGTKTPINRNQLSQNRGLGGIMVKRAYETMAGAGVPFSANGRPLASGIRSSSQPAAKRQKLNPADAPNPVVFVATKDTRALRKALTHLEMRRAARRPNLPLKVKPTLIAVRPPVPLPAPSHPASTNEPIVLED
GST-fused middle region (SANT) of MTA2: residues 263-315 of O94776

How the values were obtained:
[1] = target: Snail, endogenous (human (endogenous in HeLa, Ca Ski, SiHa)) (UniProt O95863); assay: co-IP; endogenous proteins; whole-cell lysates from HeLa, Ca Ski and SiHa cells; 500 ug extract with specific antibodies or normal IgG at 4 °C overnight, protein A/G Sepharose; washed with 50 mM Tris-HCl pH 7.4, 150 mM NaCl, 1 mM EDTA, 0.5% NP-40, 0.25% sodium deoxycholate; immunoblotting
[2] = target: T1, MTA3 (metastasis tumor antigen family protein 3), endogenous (human (endogenous in HeLa, Ca Ski, SiHa)) (UniProt Q9BTC8); assay: co-IP; endogenous proteins; equal amounts of HeLa cellular extracts immunoprecipitated with antibodies against MTA1 or MTA3, immunoblotting
T1 sequence: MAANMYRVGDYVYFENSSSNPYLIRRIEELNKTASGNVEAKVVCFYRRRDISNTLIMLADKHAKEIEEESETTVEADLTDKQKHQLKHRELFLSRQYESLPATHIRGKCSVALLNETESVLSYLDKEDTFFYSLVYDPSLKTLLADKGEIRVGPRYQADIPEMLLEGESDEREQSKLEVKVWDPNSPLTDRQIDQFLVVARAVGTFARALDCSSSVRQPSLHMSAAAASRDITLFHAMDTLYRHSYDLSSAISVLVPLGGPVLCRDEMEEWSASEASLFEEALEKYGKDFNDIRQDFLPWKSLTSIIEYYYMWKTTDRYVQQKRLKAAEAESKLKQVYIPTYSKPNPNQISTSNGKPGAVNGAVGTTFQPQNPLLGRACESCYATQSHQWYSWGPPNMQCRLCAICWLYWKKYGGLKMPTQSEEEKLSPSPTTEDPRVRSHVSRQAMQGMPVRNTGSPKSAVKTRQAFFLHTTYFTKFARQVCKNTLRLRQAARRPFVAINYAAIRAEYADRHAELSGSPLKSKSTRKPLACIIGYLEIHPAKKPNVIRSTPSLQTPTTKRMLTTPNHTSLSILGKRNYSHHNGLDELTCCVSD

[3] = target: MTA1 (metastasis tumor antigen family protein 1), endogenous (human (endogenous in HeLa, Ca Ski, SiHa)) (UniProt Q13330); assay: as above
[4] = target: MEP50, endogenous (human (endogenous in HeLa, Ca Ski, SiHa)) (UniProt Q9BQA1); assay: co-IP; endogenous proteins; whole-cell lysates from HeLa, Ca Ski and SiHa cells; 500 ug extract with specific antibodies or normal IgG at 4 °C overnight, protein A/G Sepharose; washed with 50 mM Tris-HCl pH 7.4, 150 mM NaCl, 1 mM EDTA, 0.5% NP-40, 0.25% sodium deoxycholate; immunoblotting
[5] = target: Protein arginine methyltransferase 5 (PRMT5), endogenous (human (endogenous in HeLa, Ca Ski, SiHa)) (UniProt O14744); assay: as above
[6] = target: Protein arginine methyltransferase 5 (PRMT5), endogenous (human (endogenous in HeLa, Ca Ski, SiHa)) (UniProt O14744); assay: SEC; co-fractionation by FPLC: HeLa nuclear extract (high-salt extraction; buffer D, 20 mM HEPES pH 8.0, 10% glycerol, 0.1 mM EDTA, 300 mM NaCl, 1 mM DTT) on Superose 6; fractions analysed by western blotting
[7] = target: T2, GST-fused middle region (SANT) of MTA3 (UniProt Q9BTC8); assay: pull-down; GST fusion protein (~10 ug, E. coli BL21 crude lysate) mixed with 5-8 uL in vitro transcribed/translated product in 0.8% BSA in PBS; glutathione-Sepharose 4B, 4 °C, 2 h; western blotting
T2 sequence: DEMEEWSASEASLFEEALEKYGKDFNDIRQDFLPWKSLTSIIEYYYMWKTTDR

GST-fused MTA3 = target: T3, GST-fused MTA3 (UniProt Q9BTC8); assay: as above
T3 sequence: T1 sequence

GST-fused MTA2 = GST-fused MTA2 (UniProt O94776); assay: as above
[8] = target: GST-fused middle region (SANT) of MTA1 (UniProt Q13330); assay: as above
GST-fused Snail = GST-fused Snail (UniProt O95863); assay: as above
[9] = target: GST-fused middle region (SANT) of MTA2 (UniProt O94776); assay: as above
GST-fused MTA1 = GST-fused MTA1 (UniProt Q13330); assay: as above
GST-fused PRMT5 = GST-fused PRMT5 (UniProt O14744); assay: as above

binding [1] | binding [2] | binding (GST-fused MTA3) | binding (GST-fused MTA2) | binding [8] | binding [9] | binding (GST-fused MTA1) | Substance | also measured
binds |  |  |  |  |  |  | MEP50, endogenous (from UniProt Q9BQA1 1-342) | 
binds | binds |  |  |  |  |  | Protein arginine methyltransferase 5 (PRMT5), endogenous (from UniProt O14744 1-637) | binding [3]: binds
 | no binding |  |  |  |  |  | Snail, endogenous (from UniProt O95863 1-264) | binding [4]: binds; binding [5]: binds; binding [6]: binds
 |  | binds | binds | binds | binds | binds | in vitro transcribed/translated PRMT5 (from UniProt O14744 1-637) | binding [7]: binds; binding (GST-fused Snail): binds
 |  | no binding | binds | binds | binds | binds | in vitro transcribed/translated Snail (from UniProt O95863 1-264) | binding (GST-fused PRMT5): binds
